This passage reports Kd results from patent US20210261648A1 (published 2021).

Numbering of substitutions follows the chain as printed. In names and notes the source's numbering stands.

For assay [1], the target named is T1, FcγRIa extracellular domain with C-terminal His tag (human, UniProt P12314 16-292).
T1 construct: also called FcgRIa; not shown: His tag attached to the C terminus
The assay can be described thus: SPR (Biacore T100), antibody captured by Protein A, FcγR as analyte. For orientation: SPR reads the build-up and loss of mass on a sensor chip optically.

The target of assay [2] is T2, FcγRIIa type R extracellular domain with C-terminal His tag (human, UniProt P12318 34-217).
T2 chain: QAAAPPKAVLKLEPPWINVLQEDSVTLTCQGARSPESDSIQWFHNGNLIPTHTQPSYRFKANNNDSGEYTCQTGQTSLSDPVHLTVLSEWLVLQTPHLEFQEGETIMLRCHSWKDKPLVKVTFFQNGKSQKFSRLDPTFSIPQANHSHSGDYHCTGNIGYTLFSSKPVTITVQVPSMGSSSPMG
The assay is described as above.

For assay [3], the target named is T3, FcγRIIa type H extracellular domain with C-terminal His tag (human, UniProt P12318 34-217).
T3 construct: extracellular domain; also called FcγRIIaH; FcgRIIaH; not shown: His tag attached to the C terminus
T3 sequence (looked up): T2 chain with R134H
Nature of the assay: SPR (Biacore T100); * KD calculated with Equation 2 because binding was weak.

In assay [4] the target is T4, FcγRIIIa (allotype not stated in Reference Example 4) (human, UniProt P08637 part only).
T4 construct: extracellular domain; not shown: His tag attached to the C terminus
The description is as above.

T1 sequence (P12314 16-292): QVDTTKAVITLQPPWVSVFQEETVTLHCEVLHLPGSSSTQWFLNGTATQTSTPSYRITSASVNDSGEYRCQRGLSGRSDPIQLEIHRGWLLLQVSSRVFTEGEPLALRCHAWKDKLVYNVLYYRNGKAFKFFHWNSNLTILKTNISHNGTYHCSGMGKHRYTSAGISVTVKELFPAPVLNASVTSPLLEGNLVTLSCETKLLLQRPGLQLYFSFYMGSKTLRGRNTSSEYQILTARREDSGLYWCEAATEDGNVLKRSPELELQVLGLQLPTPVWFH
T4 sequence (P08637 17-208): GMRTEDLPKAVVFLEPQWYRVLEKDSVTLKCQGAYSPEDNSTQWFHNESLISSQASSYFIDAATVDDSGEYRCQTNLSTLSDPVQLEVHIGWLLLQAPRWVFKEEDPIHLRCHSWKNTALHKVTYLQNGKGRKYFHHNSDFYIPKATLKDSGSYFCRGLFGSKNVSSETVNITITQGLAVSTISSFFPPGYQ

B1: IgG1-v1 (IL6R-G1d-v1/IL6R-L) (antibody)
heavy: QVQLQESGPGLVKPSETLSLTCAVSGHSISHDHAWSWVRQPPGEGLEWIGFISYSGITNYNPSLQGRVTISRDNSKNTLYLQMNSLRAEDTAVYYCARSLARTTAMDYWGEGTLVTVSS[skipping human IgG1 constant region with P238D (EU numbers)]
light: DIQMTQSPSSLSASVGDRVTITCRASQDISSYLNWYQQKPGKAPKLLIYYTSRLHSGVPSRFSGSGSGTDFTFTISSLQPEDIATYYCQQGNTLPYTFGQGTKVEIKRTVAAPSVFIFPPSDEQLKSGTASVVCLLNNFYPREAKVQWKVDNALQSGNSQESVTEQDSKDSTYSLSSTLTLSKADYEKHKVYACEVTHQGLSSPVTKSFNRGEC
notes: IL6R-G1d with P238D (EU numbering)
As to B1, the Kd (in general, the equilibrium constant for the complex coming apart) in assay [1] was 0.0073 µM; in assay [2] it was 12 µM; in assay [3], 56 µM; in assay [4], 51 µM.

B2: IgG1-v2 (IL6R-G1d-v2/IL6R-L) (antibody)
heavy: QVQLQESGPGLVKPSETLSLTCAVSGHSISHDHAWSWVRQPPGEGLEWIGFISYSGITNYNPSLQGRVTISRDNSKNTLYLQMNSLRAEDTAVYYCARSLARTTAMDYWGEGTLVTVSS[skipping human IgG1 constant region with L328E (EU numbers)]
light: B1 light
notes: IgG1 Fc variant
Consider B2, for which the dissociation constant (Kd) in assay [1] was determined as 0.00046 µM.
